Measurements taken from PMC6919601, “Identification of Plasmodium dipeptidyl aminopeptidase allosteric inhibitors by high throughput screening” (PLoS ONE, 2019).
Several values for one entry are separate records, joined by “and”; a condition that tells them apart may be missing. Equal values may be shown once. In all, about 110,000 compounds went through this assay and about 230 (0.21%) showed an effect of 50% or more. The list shows a part of the results.

These molecules were tested against DPAP1 (Plasmodium falciparum, UniProt Q8IIJ9) (assay: primary screen, percent inhibition; read by cleavage of a fluorogenic dipeptide substrate; higher = more effect of the substance).
Parameters: species or system P. falciparum D10 trophozoite lysates; single well
Experimental: HTS was performed in black 384-well plates. The first and last two columns of each plate contained our negative (DMSO) and positive (10 μM JCP410) controls, and the 20 central columns the test compounds at 10 μM. Compounds were first diluted 50-fold into assay buffer (50 mM sodium acetate, 5 mM MgCl2, 10 mM β-mercaptoethanol, and 0.1% CHAPS, pH 5.5) from a 10 mM DMSO stock plates. One microliter of this 200 μM intermediate stock plate was dispensed into the assay plate. […] After 30 min, the reaction was quenched with 20 μL of 0.5 M acetic acid, and the fluorescent intensity measured at 523 nm (λex = 492 nm) using an Analyst HT multimode plate reader (Molecular Devices).
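Note: 30 min substrate incubation versus DMSO and 10 µM JCP410 controls.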

DPAP1, sequence (Q8IIJ9 whole entry, looked up): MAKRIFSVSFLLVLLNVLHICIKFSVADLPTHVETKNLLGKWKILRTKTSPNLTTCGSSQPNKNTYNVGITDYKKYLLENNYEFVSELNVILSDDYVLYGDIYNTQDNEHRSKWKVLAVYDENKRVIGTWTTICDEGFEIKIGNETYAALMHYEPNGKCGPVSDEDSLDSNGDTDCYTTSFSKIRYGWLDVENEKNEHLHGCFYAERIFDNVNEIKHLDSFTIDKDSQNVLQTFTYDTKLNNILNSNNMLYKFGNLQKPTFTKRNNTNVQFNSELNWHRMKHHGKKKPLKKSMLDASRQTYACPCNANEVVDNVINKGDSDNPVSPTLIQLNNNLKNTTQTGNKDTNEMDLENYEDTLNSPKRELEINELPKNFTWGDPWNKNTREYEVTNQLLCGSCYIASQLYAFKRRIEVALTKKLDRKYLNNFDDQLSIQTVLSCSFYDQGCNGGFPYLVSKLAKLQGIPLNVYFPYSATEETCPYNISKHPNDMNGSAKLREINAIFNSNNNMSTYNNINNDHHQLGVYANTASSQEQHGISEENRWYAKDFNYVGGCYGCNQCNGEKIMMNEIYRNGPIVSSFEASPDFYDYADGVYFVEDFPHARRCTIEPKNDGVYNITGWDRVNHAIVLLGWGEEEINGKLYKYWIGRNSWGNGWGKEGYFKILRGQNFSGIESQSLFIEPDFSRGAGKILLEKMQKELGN

| SMILES | % Inhibition @ 10 uM |
| --- | --- |
| C=CCOc1ccc(C2N3CC4(C)CN2CC(c2ccccc2)(C3)C4=O)cc1 (stereo not shown) | -5.15% |
| Nc1nnc(SCC(=O)Nc2nncs2)s1 | -7.23% |
| COc1ccc(/N=C2/S/C(=C\c3ccc(C)s3)C(=O)N2C)cc1 | 5.17% |
| Oc1nc(S)nc(O)c1C(c1ccccc1)c1ccccc1 | 0.266% and -3.42% |
| COC1CCCCC1Nc1cccc(SC)c1 (stereo not shown) | 5% |
| O=C1CC(c2cccc(O)c2)C2=C(CC(c3cccs3)CC2=O)N1 (stereo not shown) | -5.47% |
| COc1ccc(Cl)cc1-n1nnc(-c2nc(-c3ccc(C)cc3)no2)c1N | 1.4% |
| COc1ccc(C2C3=C(O)CC(C)(C)CC3=NC(C)=C2C(=O)Nc2cccc(C)n2)cc1 (stereo not shown) | -6.35% |
| COc1ccc(S(=O)(=O)N2CCCC2C(=O)Nc2nccs2)cc1 (stereo not shown) | -0.318% |
| Cc1nn(-c2ccccc2)c2sc(C(=O)NCC(=O)c3ccccc3)cc12 | 1.96% |
| O=C(CSc1cn(CC(=O)N2CCOCC2)c2ccccc12)NCc1ccccc1Cl | -1.39% |
| Cc1cc(OCC(=O)Nc2sc(C)c(C)c2C(N)=O)cc(C)c1Cl | 2.56% |
| CCOC(=O)N1CCN(C(=O)c2cnn(-c3ccc(F)cc3)c2-n2cccc2)CC1 | -6.3% |
| CC(=O)c1ccc(N2C(=O)C3CC=CCC3C2=O)cc1 (stereo not shown) | 3.05% |
| O=C(Cn1c(=O)c2cccn2c2cccnc21)N1CCCCCC1 | 0.436% |
| CCSc1nc(N)c(C#N)c(CC)c1C#N | 23.3% |
| CCOc1ccccc1C(=O)Nc1cccc(CC)c1 | -0.545% |
| Cc1oc(-c2ccc(Cl)cc2)nc1CSCC(=O)NC(C)C | -1.05% |
| COc1ccc(-c2cc(C(F)F)n3ncc(C(=O)Nc4cccc(NC(C)=O)c4)c3n2)cc1 | -1.99% |
| O=[N+]([O-])c1ccc(C2Oc3ccccc3C3CC(c4ccccc4)=NN32)cc1 (stereo not shown) | 1.24% |
| CC1(C)Cc2c(C#N)c(NC3CCCCC3)nc(-c3ccco3)c2CO1 | 0.415% |
| OC1CCN(Cc2ccccc2Cl)CC1 | -3.56% |

| SMILES | % Inhibition @ 10 uM |
| --- | --- |
| Cc1cccc(NC(=O)c2ccccc2NC(=O)CCC(=O)O)c1 | 1.94% |
| CC(=O)Nc1ccc(NS(=O)(=O)c2ccc(NC(C)=O)cc2)cc1 | 3.81% |
| Cc1cccc(CSc2nc3ccncc3n2Cc2cc(=O)n3ccccc3n2)c1 | -0.637% |
| Cc1ccc2c(C)nc(Nc3nc(C)c(Cc4ccccc4)c(O)n3)nc2c1 | 2.27% |
| CCn1cc(NC(=O)NCc2cccs2)c(=O)c2ccc(C)nc21 | 0.635% |
| C1=C(CCNC2CCN(CCc3ccccc3)CC2)CCCC1 | -7.02% |
| Cc1ccnc(NS(=O)(=O)c2cc(-c3onc(C)c3C)ccc2C)c1 | -0.795% |
| COC(=O)c1c(C(F)(F)F)nc(C(F)F)c(C(=O)O)c1CC(C)C | -7.11% |
| O=c1[nH]c(=O)c2sc3nc(C(F)(F)F)cc(Cc4ccccc4)c3c2[nH]1 | 0.9% |
| Cc1ccccc1Cc1c(C)nc2c(C(=O)NCC3CCCO3)cnn2c1C (stereo not shown) | 1.16% |
| Cc1c(Cc2ccccc2)sc(NC(=O)c2ccco2)c1C(N)=O | -1.02% |
| COc1cccc(-c2cn3c(n2)sc2cc(C(=O)NCCCN4CCCC4=O)ccc23)c1 | 3.54% |
| CN(Cc1ccccc1)S(=O)(=O)c1ccc2nc(O)ccc2c1 | -4.18% |
| O=C1c2ccccc2C(=O)c2c1cccc2N1CCN(Cc2ccccc2)CC1 | -3.27% |
| Cc1cc(C)nc(Sc2ncnc3sc4c(c23)CCC4)n1 | -1.65% |
| CCO/C(O)=C1\C(C)=NC2=C(C(=O)c3ccccc32)C1c1ccc(C)cc1 (stereo not shown) | 5.55% |
| O=C(CSCC(=O)Nc1ccc2ccccc2c1)Nc1ccccc1 | -1.44% |
| CCOCCCNC(=O)C(NC(=O)c1cnccn1)c1ccc(C)cc1 (stereo not shown) | -2.04% |
| CC/N=c1\c(NC(=O)c2cccc(C)c2)c(O)oc2ccccc12 | 0.454% |
| CC(C)(C)C1CC2CC(CO)CC(C1)C2O (stereo not shown) | -1.06% |
| Cc1c(CNC(=O)c2cc(-c3ccccc3)nc3ccc(Br)cc23)cnn1C | -2.9% |
| O=C(/C=C/c1ccc(Br)cc1)c1ccco1 | -7.23% |

| SMILES | % Inhibition @ 10 uM |
| --- | --- |
| COc1cc(N2CCCC2)ccc1/C=C1/NC(=O)N(Cc2cccc(C)c2)C1=O | -4.39% |
| CN1CCCN(Cc2cccc(Cl)c2)CC1 | -5.41% |
| CC(=O)Nc1c(C)ccc(CNC(=O)COc2cc(C)ccc2C)c1C | -6.05% |
| CCC1CCCCN1CCCNc1nnc2c3ccccc3n(C)c2n1 (stereo not shown) | -2.48% |
| Cc1cc(C)c(S(=O)(=O)NCC23C=CC(O2)C2C(=O)N(c4ccccc4)C(=O)C23)c(C)c1 (stereo not shown) | 1.7% |
| CC(=O)C1=C(NCCc2nc3ccccc3[nH]2)CCCC1=O | -2.19% |
| O=C1c2cccc3cccc(c23)C(=O)N1CC1CCCO1 (stereo not shown) | -14.4% |
| O=C(NCc1ccncc1)c1cccs1 | 5.06% |
| COc1ccccc1CCNC1CC(=O)N(c2ccc(C)cc2)C1=O (stereo not shown) | -1.88% |
| COc1cc(C2C3=C(O)CCCC3=NC(C)=C2C(=O)OCc2ccccc2)cc(Br)c1O (stereo not shown) | 7.24% |
| CCOc1ccc2nc(SC3CCOC3=O)sc2c1 (stereo not shown) | -5.53% |
| Cc1ccc(CCNC(=O)CCn2nc(C)c3c(C)n(-c4ccccc4)nc3c2=O)cc1 | -4.57% |
| C=CCn1c(COc2cc(C)ccc2C)nc2ccccc21 | 6.85% |
| COc1ccc(CCNCc2c(C(=O)O)n(Cc3cc(C)ccc3C)c3ccccc23)cc1OC | -1.44% |
| CO/C(O)=C1\C(C)=NC2=C(C(=O)CC(C)(C)C2)C1c1cccc(F)c1 (stereo not shown) | -0.807% |
| CC(C)(C)NC(=O)COc1ccc(CNc2ccc3[nH]c(O)nc3c2)cc1 | 3.56% |
| CCOc1cccc2c1Oc1nc(-c3ccc(F)cc3)nc(O)c1C2 | -1.06% |
| N#CCNC(=O)[C@H](COCc1ccccc1)NC(=O)c1ccc(-c2ccccc2Cl)c(Cl)c1 | -3.48% |
| COC(=O)C1CC(OCc2ccccc2)C1 (stereo not shown) | -4.35% |
| O=c1cccc(-c2cccc3ccccc23)o1 | -8.3% |
